In the RNAGym collection of RNA variant scans (doi:10.7554/elife.90254) one finds self-cleavage data, which are given here for 167 variants.

Read counts are not given, so values of variants with three or more changes are uncertain.

B1: LINE1-full (parent)
chain: UACGUAGGUGGUUUUCCCCUGAUAGUGCUAAGGGGGCCUGGAAGUUUGGACUGGGCAGAGCUCAACACAGCGUGGCAAAGUGGCUGUGGCUAGACUGCCUCUCUGGAUUCCUCGUCACUCAGCAGGGCAUCUCUGAGAGAAAUGCC

The variants in this series derive from B1. As to the kind of experiment: self-cleavage, relative activity (ratio to wild type); higher = more cleavage; in vitro, sequencing; the parent is a self-cleaving ribozyme.
Consider U45A U85C A142G, for which the self-cleavage amounted to 0.19.

With U1C U45C G88C, the self-cleavage came to 0.05.

Regarding A6G U12A A65G G80A A92G A117G, the self-cleavage came to 0.

With U47C A59G A69U U85A A142G, the self-cleavage was determined as 0.08.

As to U9C U15A G40A, the self-cleavage worked out at 1.03.

For U23C U29C U143C, the self-cleavage was 1.53.

Turning to A57U A94G U115C, the self-cleavage came to 0.

As to U20A A24G A94G U134C, the self-cleavage worked out at 1.2.

For G93U U108C U132A A142G, the self-cleavage turned out to be 0.

On to U20A A65G U119C, for which the self-cleavage was determined as 0.23.

With U96A U108A U112C, the self-cleavage was found to be 0.04.

For the variant A30U G60A U119A A124G, the self-cleavage was determined as 0.01.

In the case of U20G U39C U134C, the self-cleavage is 0.77.

Consider U14C A43U A121G, for which the self-cleavage was 0.67.

Consider A65C A107G U119C U143C, for which the self-cleavage was determined as 0.

As to A2G U15A A57G, the self-cleavage stood at 1.08.

Turning to A50G A65G A69U U115C, the self-cleavage worked out at 0.

With U62C U81C U96A U112C, the self-cleavage is 0.06.

On to U26A U112C U134C, for which the self-cleavage came to 1.44.

In the case of U52C A67G U73A G93U U108C A140U, the self-cleavage turned out to be 0.

A78C A107G A121U: the self-cleavage came out at 2.76.

G32A A50U A65G C128U: the self-cleavage is 0.04.

For G4U A64G A142G, the self-cleavage stood at 0.28.

Regarding U13C C28G G32A A42G, the self-cleavage stood at 0.92.

C3U U47A A107C A121G A140U: the self-cleavage amounted to 0.84.

With U1C A65U A77G U87C U130C A141G, the self-cleavage was found to be 0.

Turning to A64U A77G A121U, the self-cleavage came out at 0.66.

For the variant A64G G88A U104C, the self-cleavage is 0.12.

As for G35U G49A U81A, the self-cleavage was 1.06.

Regarding A50G U91A A140G, the self-cleavage came to 0.52.

As for U96C U132C C146U, the self-cleavage was 0.

Turning to A65C U91C A94G G114U, the self-cleavage amounted to 0.

For the variant A6G U23C G44A, the self-cleavage amounted to 1.05.

As to U1C A77G U87A U104C A138G, the self-cleavage stood at 0.1.

With U12A U14C U100C A129G, the self-cleavage was found to be 0.75.

For A31G G36A U119A U130C, the self-cleavage is 1.41.

Regarding U52A A57U A67G U109A, the self-cleavage amounted to 0.03.

With A22C A57U U108C C120A, the self-cleavage is 0.71.

As to A50U A59G A79G A140U, the self-cleavage was 0.04.

Regarding A79G U100A U104C, the self-cleavage came out at 1.06.

For the variant G21A A42U U112A, the self-cleavage was 1.12.

U39C U100C C113U U143C: the self-cleavage came out at 1.43.

Take U85C U102C A140G: the self-cleavage is 0.

For U9C U39C G105A, the self-cleavage is 0.9.

In the case of U12G U13C U96C, the self-cleavage worked out at 0.

With U85C G127C A142G, the self-cleavage worked out at 0.36.

Turning to A31C A65U U85C, the self-cleavage was 0.

For the variant U1C A31G U47A A124G, the self-cleavage was 1.31.

Consider C38U U73G A77U U104C U143A, for which the self-cleavage was 1.56.

Turning to U13C A64G U73A, the self-cleavage turned out to be 0.37.

Regarding C19U A30C U100A A142G, the self-cleavage was determined as 0.64.

With U20C A22G U109C A142G, the self-cleavage turned out to be 0.84.

Take G58U A94U G135U: the self-cleavage came out at 0.03.

As for U15C A42G U115C, the self-cleavage is 2.

In the case of U45A A67G A121G, the self-cleavage was found to be 0.18.

In the case of G32A A42G C68A A107G, the self-cleavage is 0.07.

As for U39A A107U U112C, the self-cleavage worked out at 1.68.

On to G32C A50U U112A, for which the self-cleavage came out at 1.01.

In the case of G32A A92G C99U, the self-cleavage is 0.03.

For the variant A31G G35A A57G, the self-cleavage was 0.6.

For U12G U23C A77G A136G, the self-cleavage turned out to be 1.84.

With U29C A79G U119C, the self-cleavage came out at 0.68.

As to U81G A92G A107G, the self-cleavage worked out at 0.

Turning to A24G U96A C120U, the self-cleavage came to 0.12.

For U47A A79G C103A, the self-cleavage stood at 1.84.

As to U26C U29A A30G C68U U108C, the self-cleavage was found to be 0.7.

Take A31G A59G U100C A136G: the self-cleavage is 0.

For U15C U20A U108C A136G, the self-cleavage was 2.3.

As to U14C C16U A69G A94G, the self-cleavage amounted to 0.

On to U73A G125U U134C, for which the self-cleavage worked out at 1.62.

U12G U20C A42G U45A: the self-cleavage came to 1.51.

U13A U14C A43U C113A A117U: the self-cleavage came out at 0.57.

U45C A69G A140G: the self-cleavage worked out at 0.92.

In the case of U14C U26C G58U A138U, the self-cleavage was 0.07.

A64U U109C C131A: the self-cleavage stood at 0.42.

As to U9C U13C A78G A117U, the self-cleavage came to 0.77.

Regarding U13A U14C U119C, the self-cleavage came to 0.97.

With G4A C84A A141G, the self-cleavage came to 0.22.

With A22U A43G C51U C71U U100C A121G, the self-cleavage stood at 1.6.

Regarding C51U U108C A136G, the self-cleavage is 1.88.

Regarding U62A C68U U100C A138G, the self-cleavage came to 0.04.

As for U47A U85C G88A A141G, the self-cleavage came to 0.02.

As to A42G G74A G93A, the self-cleavage is 0.05.

For U29C U47C A64G A79G, the self-cleavage came to 1.31.

Turning to U62C A117U G139C, the self-cleavage was 0.05.

On to U47A U73C A121U, for which the self-cleavage turned out to be 1.61.

With U13C A42U A94U, the self-cleavage amounted to 0.36.

Regarding U12C U13A U14C U45C U96C, the self-cleavage worked out at 0.

With A43G G89U A138U, the self-cleavage amounted to 0.05.

Consider U85C U102C U104A G114A, for which the self-cleavage stood at 0.08.

Turning to A31G A50G A141G, the self-cleavage was determined as 0.78.

Take U45A A50G A79U: the self-cleavage turned out to be 0.48.

In the case of U46C A59U G70C U109C U132C A140G, the self-cleavage stood at 0.24.

As to U39C A50G C145A, the self-cleavage came out at 1.03.

For U104C A138G A140U, the self-cleavage was 1.2.

U13G A59C U119C: the self-cleavage worked out at 1.61.

U9A U47C U100C A124G: the self-cleavage amounted to 1.84.

For the variant U9C U13C C37U U47C U109C G139U, the self-cleavage is 1.31.

Turning to A64U U96A C103U, the self-cleavage came out at 0.03.

With U12C A69G U134G, the self-cleavage turned out to be 0.28.

Take U15A U45C U47A: the self-cleavage came to 0.71.

For the variant U5C G82A U108C, the self-cleavage was 2.32.

Regarding A43U G97A U102A, the self-cleavage turned out to be 0.19.

Take U52A G58A A124C: the self-cleavage was 0.02.

C16U A43G A142G: the self-cleavage is 1.51.

In the case of C17U A79G A92G, the self-cleavage was determined as 0.

For U12C U14C A124U, the self-cleavage is 1.37.

As for A57G G86A A94G U108C, the self-cleavage was found to be 0.

On to U85G U130C A141G, for which the self-cleavage was 0.2.

As to U12G U14C U52A, the self-cleavage was 2.3.

Turning to A24G U29C G75A U87C A138G, the self-cleavage is 0.45.

For U15C U62C A141G, the self-cleavage came to 0.24.

A77G U96A G114U: the self-cleavage amounted to 0.09.

On to U15A A92C U134C, for which the self-cleavage came out at 0.11.

As for U73A U85C U112C, the self-cleavage amounted to 0.11.

G40A A64G U134C: the self-cleavage was determined as 0.18.

A59U U85C U102C U132C: the self-cleavage was determined as 0.

As for U26A U39C A107G, the self-cleavage was 0.71.

On to A24G A77G C101U A124C, for which the self-cleavage turned out to be 1.53.

Take U26C A42G A69G: the self-cleavage stood at 0.3.

As to U9A C51A U102C, the self-cleavage worked out at 1.19.

Take A50U U102A U119A: the self-cleavage is 1.53.

Consider U12G G41A C133U, for which the self-cleavage is 1.21.

G32A A43G C128U U134C U143C: the self-cleavage amounted to 1.12.

Regarding U13A U52C G54C A78G A117G, the self-cleavage was 0.

For U62C U73A A121U A140G, the self-cleavage came out at 0.05.

As to U12C A24G G36A A50U A65G, the self-cleavage worked out at 0.56.

As to U23C U100C A136G, the self-cleavage was 1.43.

Take U14A A22U A64G A69C U112A: the self-cleavage was found to be 0.45.

A30U U39C A64G A136G: the self-cleavage came out at 1.15.

For U14C A31C C113A A141G, the self-cleavage stood at 0.55.

For U29C U87C U119C, the self-cleavage was found to be 0.

G34A A50G G58U A129G: the self-cleavage was found to be 0.06.

For the variant U29C U62C U108C, the self-cleavage was 0.

With U9C U20A A65G, the self-cleavage came out at 0.45.

In the case of U85C U96C U100C A129G C133A, the self-cleavage is 1.53.

Consider A22U U73C U100C A138G U143C, for which the self-cleavage worked out at 2.87.

Regarding U5A A30C G32U, the self-cleavage amounted to 0.

As for U14C G36U U100C, the self-cleavage stood at 1.73.

Take U14A A24G A59U A121U A142G: the self-cleavage was found to be 0.93.

A69G A94G A124G: the self-cleavage worked out at 0.92.

As for U15A A30G A50U U104A A124U, the self-cleavage was 1.3.

For the variant A65G U73A U100C, the self-cleavage is 0.1.

Consider G11A A50C A64U A77G, for which the self-cleavage was 0.76.

With U20C A79G U130C A140G, the self-cleavage worked out at 0.57.

As to U15C U39C U52A A67G, the self-cleavage is 0.99.

With A24G A78U U119C, the self-cleavage is 2.13.

Take U45C A92G U132C: the self-cleavage was found to be 0.11.

As to U13C A69G U87C, the self-cleavage came out at 0.21.

As for U20C U109A A140G, the self-cleavage was 0.93.

For C56U A69U A142G, the self-cleavage was 0.09.

Turning to A30G G40A U81A C90U, the self-cleavage worked out at 0.07.

On to A31U A64G C123U, for which the self-cleavage is 0.24.

Consider U52A U73A A138U, for which the self-cleavage was found to be 1.92.

Regarding U12G U13C U14C A65G G88A, the self-cleavage was determined as 0.32.

For U5C U85C C118A A140G, the self-cleavage came to 0.46.

As for G88U G114A A121G, the self-cleavage is 0.04.

With C37G C63U U81A, the self-cleavage amounted to 0.44.

On to G4A A43G U87A U119A U134C, for which the self-cleavage amounted to 0.14.

On to U14C A79G U132C, for which the self-cleavage was 1.27.

Turning to A2G U20A U45C, the self-cleavage amounted to 0.33.

In the case of U1C U73C A78G, the self-cleavage stood at 0.48.

For the variant U13C A78C U81C, the self-cleavage was determined as 1.02.

Turning to U26C U104A U130C, the self-cleavage is 1.46.

Regarding U1C C3U A94G A121U, the self-cleavage amounted to 0.34.

For the variant C16U A42G U87A, the self-cleavage was 0.12.

U1C A6G A43G U62C: the self-cleavage worked out at 0.
